Test results taken from PubChem BioAssay AID1508642 (National Center for Advancing Translational Sciences (NCATS), 2021).
Among all 43,000 compounds or so, about 200 (0.47%) were called active. Not shown: some 12% with an inconclusive outcome. The call rests on the fitted dose curve; in most records, active means well fitted cell-killing curve with a large enough effect; inconclusive means small, poorly fitted or top-dose-only effect, or effect the other way; inactive means flat fitted curve, though single readings scatter. The list shows a part of the results.

experiment: Cell viability qHTS assay in S16 Pmp22-F2sN cells; conditions: S16 Pmp22-F2sN Schwann cells viability, CellTiter-Glo, 24 h; series mostly up to 57.5 µM; activity change, negative = cytotoxicity: at the top concentration; further: nearly all actives have a fitted effect of over 65% in size
Summary of the method: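 Used to flag compounds lowering reporter output through toxicity, this quantitative HTS measures ATP-based CellTiter-Glo luminescence in S16 Pmp22-F2sN Schwann cells after 24 h compound exposure at 37C.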
On the % scale 0 is the no-effect control and ±100 the full control effect.

Row | Structure (SMILES) | activity change, negative = cytotoxicity
1 | Cc1cccc(CNC(=O)c2sc3ncnc(N(C)C4CCCCC4)c3c2C)c1 | inactive: 1.54%
2 | Cc1nn(-c2ccccc2)c2nc(C3CC3)cc(C(=O)NCc3ccccc3Cl)c12 | inactive: -1.01%
3 | CCN(CC)c1nc(-c2ccccc2Cl)c2cc(Br)ccc2n1 | inactive: 0.585%
4 | O=C(C1CC1)N1CCN(c2nc3c(F)cc(F)cc3s2)CC1 | inactive: -8.12%
5 | CC(C)Nc1ccc(-c2nc(-c3ccccn3)no2)cc1[N+](=O)[O-] | inactive: -0.551%
6 | Cc1cc(Cl)ccc1OCC(=O)N(Cc1ccc(N(C)C)cc1)CC1CCCO1 (centres undefined) | inactive: -28.5%
7 | Cc1cc(C)cc(C(=O)Nc2nnc3n2CCS3)c1 | inactive: -24.6%
8 | CCOC(=O)c1ccc(NC(=O)CSc2nccn2Cc2ccc(OC)cc2)cc1 | inactive: -0.246%
9 | O=C(CSc1ncc2c(n1)-c1cc(Cl)ccc1N(Cc1ccccc1F)S2(=O)=O)Nc1cccc(C(F)(F)F)c1 | inactive: 8.71%
10 | COC(=O)c1cc(NC(=O)c2ccc3c(c2)N(Cc2cccc(Cl)c2)C(=O)c2ccccc2S3=O)cc(C(=O)OC)c1 (centres undefined) | inactive: -2.26%
11 | CC(=O)c1cccc(NC(=O)c2c(C)nn(-c3ccc(F)cc3)c2-n2cccc2)c1 | inactive: -2.99%
12 | Cc1cc2ccccc2n2c(SCC(=O)Nc3cccc(C(F)(F)F)c3)nnc12 | inactive: -29.4%
13 | CCCn1c2ccccc2c2cnn(CC(=O)Nc3ccc(C)cc3Br)c(=O)c21 | inactive: 3.94%
14 | CCOc1ccccc1NC(=O)c1cnc(N2CCOCC2)c2ccccc12 | inactive: -4.61%
15 | COc1ccc(OCc2nc3c4c(-c5ccc(OC)cc5)c(-c5ccc(OC)cc5)oc4ncn3n2)cc1 | inactive: -2.22%
16 | COc1ccc(NC(=O)CCS(=O)(=O)c2nc(-c3ccc4c(c3)OCO4)cc(C(F)(F)F)n2)c(OC)c1 | inactive: 17.7%
17 | COc1ccc(CCNC(=O)c2cc(S(=O)(=O)N3CCCC(C)C3)cn2C)cc1OC (centres undefined) | inactive: 10.9%
18 | O=C(O)c1ccc2c(c1)N(Cc1ccc(F)cc1Cl)C(=O)c1ccccc1S2 | inactive: 28.8%
19 | CC(CNC(=O)CCCn1c(=O)c2cccn2c2ccccc21)c1ccccc1 (centres undefined) | inactive: -5.56%
20 | CCN(C(=O)c1cnc(N2CCOCC2)c2ccccc12)c1cc(C)ccc1C | inactive: 11.9%
21 | CC(C)N(Cc1ccccc1)C(=O)CN1C(=O)COc2ccc(S(=O)(=O)N3CCCCCC3)cc21 | inactive: -1.24%
22 | CCOc1ccc(NC(=O)Cn2cc(C(=O)c3ccccc3)c(=O)c3cc4c(cc32)OCO4)cc1 | inactive: 7.75%
23 | Cc1ccc(Cn2c(=O)n(-c3ccc(C)c(C)c3)c(=O)c3c(C)c(C)sc32)cc1 | inactive: 1.37%
24 | CCOc1ccc(CNC(=O)C2=Cc3cc(Br)ccc3OC2)cc1OC | inactive: 2.53%

Row | Structure (SMILES) | activity change, negative = cytotoxicity
25 | COc1ccccc1NC(=O)c1oc2ccccc2c1NC(=O)COc1ccccc1OC | inactive: 4.51%
26 | COc1ccc(Cl)cc1NC(=O)CSc1nc(=O)[nH]c2c1CCCC2 | inactive: 11.5%
27 | CCOc1ccc(OCC)c(NC(=O)c2csc3c2CCCC3)c1 | inactive: 1.68%
28 | Cc1ccc2oc(-c3ccc(NC(=O)c4cccc(F)c4)c(C)c3)nc2c1 | inactive: 7.27%
29 | CC(=O)N1c2c(cc(Br)cc2S(=O)(=O)NCc2ccccc2Cl)CC1C (centres undefined) | inactive: 18.5%
30 | COc1ccc(NC(=O)c2cc(C)nc3c2c(C)nn3-c2cccc(Cl)c2C)c(OC)c1 | inactive: -5.7%
31 | COc1cc(Cl)c(NC(=O)CN(C)S(=O)(=O)c2ccc3c(c2)CCCC(=O)N3)c(OC)c1 | inactive: 1.84%
32 | COc1cc(NC(=O)N2CCC(CN3CCc4ccccc4C3)CC2)cc(OC)c1 | inactive: -1.3%
33 | COC(=O)c1ccc(CSc2nc3c([nH]c4ccccc43)c(=O)n2-c2cc(C)cc(C)c2)o1 | inactive: 9.15%
34 | CN(C(=O)Cn1ncc2c1-c1ccccc1OC2)c1ccc(Br)cc1 | inactive: 24.1%
35 | CCCCCn1c(CNC(=O)c2ccc(F)cc2)nc2ccccc21 | inactive: -12.3%
36 | O=C1COc2cc(S(=O)(=O)CCC(=O)N3CCN(c4ccccc4)CC3)c(Cl)cc2N1 | inactive: 19.9%
37 | Cc1ccc(S(=O)(=O)NCCc2nnc3ccc(SCC(=O)Nc4ccc(OC(F)(F)F)cc4)nn23)cc1 | inactive: 5.34%
38 | CCCc1ccc(-c2ccc(C(=O)Oc3ccc(Br)cc3)cc2)nc1 | inactive: 5.38%
39 | CCOc1ccc(NC(=O)Cn2c(=O)c(CNc3ccccc3)cc3cc4c(cc32)OCCO4)cc1 | inactive: 10.7%
40 | COc1ccc(Cl)cc1C(=O)Nc1c2c(nn1-c1ccc(Cl)cc1)CS(=O)(=O)C2 | inactive: 1.47%
41 | Cc1cc(C)cc(-n2ccnc(NCc3ccc(F)cc3)c2=O)c1 | inactive: -23%
42 | CCOC(=O)c1c(C)[nH]c(C)c1S(=O)(=O)N1CCC(C(=O)NCc2ccc(N(C)C)cc2)CC1 | inactive: -1.85%
43 | CN(C)C1(CNC(=O)COc2ccc(C(C)(C)C)cc2)CCCCC1 | inactive: 0.404%
44 | O=C(Nc1ccc2c(c1)OCO2)c1cc(-c2ccc(Cl)cc2)on1 | inactive: 4.61%
45 | CCCCCn1c(-c2cccc(C)c2)nc2ccccc21 | inactive: -4.08%
46 | COc1ccccc1OCC(=O)Nc1c(C(=O)c2ccc(C)cc2)oc2ccccc12 | inactive: -3.11%
47 | COc1ccccc1CNS(=O)(=O)c1ccc(N2CCCCS2(=O)=O)cc1 | inactive: -25.8%
48 | COc1ccc(OC)c(CCNC(=O)C(C)n2c(C)c3cnn(-c4ccccc4)c(=O)c3c2C)c1 (centres undefined) | inactive: -1.62%

Row | Structure (SMILES) | activity change, negative = cytotoxicity
49 | COc1ccc(S(=O)(=O)NCCc2sc(-c3cccc(C)c3)nc2C)cc1 | inactive: 2%
50 | Cc1ccc(CCNC(=O)c2cccc(Nc3nc4ccccc4nc3-n3nc(C)cc3C)c2)cc1 | inactive: 3.44%
51 | COc1cc(Br)ccc1C1C(C(=O)Nc2ccc(C)cc2C)=C(C)Nc2nnnn21 (centres undefined) | inactive: -7.78%
52 | COc1ccc(CCNc2nc3ccccc3c3nc(-c4cccc(C)c4)nn23)cc1OC | inactive: 3.75%
53 | Cc1ccc(NC(=O)CSCc2cnn(-c3ccccc3)c2-n2cccc2)c(Cl)c1 | inactive: -1.89%
54 | CCc1ccccc1NC(=O)Cn1c(=O)n(-c2ccc(C)c(C)c2)c(=O)c2oc3ccccc3c21 | inactive: 17.4%
55 | CC(C)CCNC(=O)c1ccc(Cn2c(SCC(N)=O)nc3ccccc3c2=O)cc1 | inactive: 17.6%
56 | CCOc1cc(C(=O)OCc2cc(=O)n3nc(C4CC4)sc3n2)cc(OCC)c1OCC | inactive: -5.78%
57 | COc1cc(OC)c(NC(=O)NCc2cccn2Cc2ccccc2)cc1Cl | inactive: -4.77%
58 | CCc1ccc(-n2nc(C)c3c(C(=O)N4CCN(c5cccc(Cl)c5)CC4)cc(C)nc32)cc1 | inactive: 0.964%
59 | Cc1nn(CC(=O)N2CCN(c3cccc(Cl)c3)CC2)c(=O)c2c1sc1ccccc12 | inactive: -0.802%
60 | CCOC(=O)c1ccc(NC(=O)CCc2c(C)nc3c(c(C)nn3C(C)(C)C)c2C)cc1 | inactive: 2.1%
61 | CC1CCCN(S(=O)(=O)c2cc(C(=O)NCc3ccccc3Cl)n(C)c2)C1 (centres undefined) | inactive: -0.898%
62 | Cc1ccc(F)cc1NC(=O)CCSc1nc(-c2ccco2)cc(C(F)(F)F)n1 | inactive: -11.8%
63 | Cc1ccc(NC(=O)C(=O)NCC(c2cccnc2)N2CCc3ccccc3C2)cc1 (centres undefined) | inactive: -4.05%
64 | COC(=O)c1c(-c2cccs2)csc1NC(=O)c1cc(OC)c(OC)c(OC)c1 | inactive: 5.1%
65 | CC(C)CCNC(=O)c1nn(C)c2c1CSc1ccccc1-2 | inactive: -0.254%
66 | COc1ccc(-c2cn3c(n2)sc2cc(C(=O)Nc4ccc(F)cc4Cl)ccc23)cc1 | inactive: 5.91%
67 | COc1ccc(-n2ccn(CC(=O)Nc3ccc(C)c(C)c3)c(=O)c2=O)cc1OC | inactive: 4.47%
68 | CCOc1cc2[nH]c(=O)n(CCCC(=O)NCc3ccc(OC)cc3)c(=O)c2cc1OCC | inactive: 1.52%
69 | O=C(NC1CCCCCC1)c1ccc(CS(=O)c2ccc(Br)cc2)o1 (centres undefined) | inactive: -22.8%
70 | COc1cccc(C2c3c(-c4ccccc4O)n[nH]c3C(=O)N2Cc2cccnc2)c1 (centres undefined) | inactive: -7.1%
71 | CCN(C(=O)c1cc2cc(Br)cc(OC)c2oc1=O)c1ccccc1 | inactive: 13.6%
72 | CC(=O)c1ccc(NC(c2ccc(F)cc2)c2nnc(-c3ccccc3)o2)cc1 (centres undefined) | inactive: 10.1%

Row | Structure (SMILES) | activity change, negative = cytotoxicity
73 | CC(C)(C)OC(=O)N1CCC(c2c(C(=O)N3CCN(c4ccccn4)CC3)cnn2-c2ccccc2Cl)CC1 | inactive: -0.19%
74 | CCOCCCNC(=O)c1cn(CC)c2ccc(S(=O)(=O)N3CCc4ccccc4C3)cc2c1=O | inactive: -9.95%
75 | CCOC(=O)c1[nH]c(C)c(CCC(=O)N2CCN(c3cccc(C)c3C)CC2)c1C | inactive: -24.2%
76 | COc1cc(C(CC(=O)Nc2cc(C)ccc2C)N2Cc3ccccc3C2=O)cc(OC)c1OC (centres undefined) | inactive: -0.107%
77 | CN(Cc1ccccc1)C(=O)c1cccc(NC(=O)c2nsc3ccccc23)c1 | inactive: -26.5%
78 | CCOc1ccc(CC(=O)NCCc2csc(-c3ccc(Cl)cc3)n2)cc1 | inactive: -4.3%
79 | CCc1ccc(Nc2sc(C(=O)c3ccccc3)c(N)c2S(C)(=O)=O)cc1 | inactive: -2.48%
80 | CCOCCc1nn2c(=O)cc(COC(=O)CNC(=O)c3ccc(F)cc3)nc2s1 | inactive: -0.443%
81 | CCOc1ccc(CN2C(=O)c3ccccc3Sc3ccc(C(=O)OC)cc32)cc1 | inactive: -22.6%
82 | COc1ccc(OC)c(CNC(=O)c2c(C)oc3ncn(C)c(=O)c23)c1 | inactive: -17.7%
83 | O=C(c1ccc2c(c1)CCN2S(=O)(=O)c1ccc(Cl)cc1)N1CCN(c2ccccc2)CC1 | inactive: -11.3%
84 | COc1ccc(CNc2oc(/C=C/c3cccc(OC)c3)nc2C#N)cc1 | inactive: -24.7%
85 | O=C(NCc1ccc(F)cc1)C1CCN(c2ncnc3c2nc2n3CCCCC2)CC1 | inactive: 14.3%
86 | COc1ccc(CNC(=O)c2ccc3c(c2)N(Cc2ccccc2C)C(=O)c2ccccc2S3=O)cc1 (centres undefined) | inactive: -6.14%
87 | CCOC(=O)C1CCN(S(=O)(=O)c2ccc(N3CCCCS3(=O)=O)cc2)CC1 | inactive: -1.35%
88 | CCCn1c(=O)c2sccc2n2c(CCCC(=O)Nc3ccc(Oc4ccccc4)cc3)nnc12 | inactive: 1.06%
89 | CCn1c(SCc2ccc(F)cc2Cl)nc(=O)c2c(C(=O)OC)cc(C3CC3)nc21 | inactive: -19.5%
90 | Cc1ccc(CNC(=O)c2cc(-c3ccc(C)cc3)nc3n[nH]c(-c4ccc(F)cc4)c23)cc1 | inactive: -1.24%
91 | CC(C)C1N=C2c3ccccc3N=C(SCC(=O)NCc3ccccc3Cl)N2C1=O (centres undefined) | inactive: -21.1%
92 | Cc1ccc(-c2cn3c(n2)sc2cc(C(=O)NCc4cccs4)ccc23)c(C)c1 | inactive: -21.9%
93 | Cc1ccc(N(Cc2cc3ccccc3[nH]c2=O)C(=O)c2cccc(Cl)c2)cc1 | inactive: 1.98%
94 | CCN(CC)CCCNC(=O)CSc1nc2nc(C)c(Cc3c(F)cccc3Cl)c(C)n2n1 | inactive: 1.88%
